# Measured values published in PMC4336329 (PLoS ONE, 2015).
# Screen size: about 310,000 compounds; about 2,200 (0.71%) showed an effect of 50% or more. Effects have a minus sign here. The list shows a part of the results.
# Biological target: human ether-à-go-go-related gene (hERG) potassium channel (human, UniProt Q12809)
# Test: primary screen, population patch clamp on CHO cells stably expressing hERG
# human ether-à-go-go-related gene (hERG) potassium channel, sequence (Q12809 whole entry, looked up): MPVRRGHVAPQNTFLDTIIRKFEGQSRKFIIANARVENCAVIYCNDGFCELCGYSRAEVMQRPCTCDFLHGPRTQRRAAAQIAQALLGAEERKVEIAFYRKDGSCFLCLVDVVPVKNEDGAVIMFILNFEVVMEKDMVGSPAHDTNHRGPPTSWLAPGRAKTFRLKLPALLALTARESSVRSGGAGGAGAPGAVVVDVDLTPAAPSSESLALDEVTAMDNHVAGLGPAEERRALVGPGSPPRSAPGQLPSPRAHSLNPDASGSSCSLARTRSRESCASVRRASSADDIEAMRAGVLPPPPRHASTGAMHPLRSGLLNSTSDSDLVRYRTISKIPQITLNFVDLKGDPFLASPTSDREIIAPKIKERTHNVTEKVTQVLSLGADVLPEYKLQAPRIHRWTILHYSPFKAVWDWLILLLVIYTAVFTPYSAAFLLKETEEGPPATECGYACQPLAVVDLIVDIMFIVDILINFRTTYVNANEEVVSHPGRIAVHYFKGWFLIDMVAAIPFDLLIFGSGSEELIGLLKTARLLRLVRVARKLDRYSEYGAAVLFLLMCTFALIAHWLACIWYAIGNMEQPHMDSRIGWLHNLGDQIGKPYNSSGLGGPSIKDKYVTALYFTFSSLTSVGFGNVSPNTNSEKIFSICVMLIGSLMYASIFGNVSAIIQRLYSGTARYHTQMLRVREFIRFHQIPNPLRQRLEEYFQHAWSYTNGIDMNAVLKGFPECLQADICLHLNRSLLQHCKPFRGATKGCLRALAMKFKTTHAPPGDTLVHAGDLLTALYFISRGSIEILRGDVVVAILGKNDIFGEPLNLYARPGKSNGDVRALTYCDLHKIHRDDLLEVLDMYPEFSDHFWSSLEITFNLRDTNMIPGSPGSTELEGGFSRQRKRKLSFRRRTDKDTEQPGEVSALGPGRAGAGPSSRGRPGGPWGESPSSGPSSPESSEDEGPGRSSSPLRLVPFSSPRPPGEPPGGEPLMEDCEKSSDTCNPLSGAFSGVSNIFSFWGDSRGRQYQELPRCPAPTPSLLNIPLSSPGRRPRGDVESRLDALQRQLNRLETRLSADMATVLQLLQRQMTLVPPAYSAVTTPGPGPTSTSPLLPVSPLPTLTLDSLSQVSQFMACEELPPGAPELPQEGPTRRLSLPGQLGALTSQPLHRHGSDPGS
row,Compound,"hERG current change (%, negative = inhibition) at 1uM [%]"
1,CC(C)CNC(=S)N1CCC(C(=O)c2ccc(F)cc2)CC1,-5.66
2,COc1cccc(-c2nn(-c3ccccc3)cc2C(=O)OCC(=O)Nc2ncc(Cl)cc2Cl)c1,-7.33
3,Cc1nn(Cc2c(F)cccc2Cl)c(C)c1[N+](=O)[O-],14.3
4,O=C(CNc1cccc(Cl)c1)c1ccc(Br)cc1,17.7
5,CC1CC(C)CN(C(=O)CCn2c(=O)oc3ccccc32)C1 (stereo not drawn),9.67
6,O=C(COC(=O)CNC(=O)c1ccc(Br)cc1)NCCC1=CCCCC1,16.8
7,O=C(N/N=C/c1ccc(OCC(=O)N2CCCCC2)cc1)c1ccccc1,14.2
8,COc1ccc(Cl)cc1N(C(=O)c1ccco1)C(C(=O)NC1CCCC1)c1cccnc1 (stereo not drawn),4.1
9,Cc1ccc(S(=O)(=O)NCCC(=O)N2CCN(S(=O)(=O)c3ccccc3)CC2)cc1C,10.8
10,COc1ccc(/C=N/NS(=O)(=O)c2ccccc2)cc1OC(=O)c1ccc(C)cc1,12.8
11,O=C(O)c1nc(-c2ccccc2)n(-c2ccccc2)n1,7
12,CCCCOC(=O)Nc1cc(Cl)ccc1C,11.2
13,COc1ccccc1C(=O)NC(CCSC)C(=O)NCCCSc1ccccc1 (stereo not drawn),1.92
14,Cc1nc(-c2nc(-c3c(C(=O)NN)noc3C)cs2)cs1,14.6
15,O=C(OCc1cc(=O)n2c(n1)sc1ccccc12)c1ccc(O)cc1,17.3
16,Nn1c(Cc2cccc3ccccc23)nnc1SCC(=O)NC1CCS(=O)(=O)C1 (stereo not drawn),15.2
17,CCOC(=O)C1CCCN(S(=O)(=O)c2ccc(F)c(C(=O)Nc3ccc(F)c(F)c3)c2)C1 (stereo not drawn),-14.8
18,Cc1ccc(NC(=O)COc2coc(CN3c4ccccc4CC3C)cc2=O)c(C)c1 (stereo not drawn),-0.863
19,COc1ccc(S(=O)(=O)Nc2cccc(SC)c2)cc1C(=O)N1CCOCC1,16.1
20,COc1c(Cl)cc(C(=O)NN)cc1Cl,1.37
21,CC(=O)c1cc(C#N)c(SCc2ccccc2)nc1C,17.9
22,CC1=CC2=NC(=O)CC(C)(C(=O)N(CC(=O)NC3CCCC3)c3ccccc3F)N2C=C1 (stereo not drawn),19.2
23,Cc1ccc(CSc2nnc(-c3ccco3)o2)cc1,14.4

row,Compound,"hERG current change (%, negative = inhibition) at 1uM [%]"
1,COc1ccccc1-n1nnnc1SCC(=O)NC1CCCCC1,9.3
2,CC/C(=N/Nc1ccccc1C)c1cnnc(SC)n1,10.8
3,CC1=C([N+](=O)[O-])C(c2ccccc2C(F)(F)F)NC(=O)N1C (stereo not drawn),9.96
4,Cc1cc(=O)oc2cc(OCC(=O)OCC(=O)Nc3ccccc3C(C)C)ccc12,7.48
5,CCCN1CCN(CCCNC(=O)c2ccc3c(c2)NC(=O)c2ccccc2S3)CC1,9.21
6,COc1ccccc1N1CCN(C(=O)c2ccc3c(Cl)c4c(nc3c2)CCCC4)CC1,11.1
7,COc1cc(=O)n2c(-c3ccccc3)csc2n1,10.9
8,CCc1ccccc1NC(=S)N(CCCN(C)C)Cc1cc2cc3c(cc2[nH]c1=O)OCO3,4.24
9,CCN(C(=O)CCN1C(=O)c2ccccc2C1=O)C1CCCCC1,12.2
10,O=C(C1CCCN(S(=O)(=O)c2cccc3cccnc23)C1)N1CCc2ccccc21 (stereo not drawn),-11.6
11,COC(=O)Nc1sc2c(c1C(=O)N1CCOCC1)CCC(C)C2 (stereo not drawn),-3.07
12,CCOC(=O)/C(=C\c1ccccc1)NC(=O)c1ccccc1,5.91
13,COc1cccc(C(=O)NC(=O)Nc2nc(C)cc(C(F)(F)F)n2)c1,15.6
14,CC(=O)NC1C(=O)N(Cc2ccccc2)c2ccc(Br)cc21 (stereo not drawn),7.93
15,C=CCn1c(SCC(=O)Nc2nc3ccccc3s2)nc(O)c(CC)c1=O,10.3
16,NC(=O)C1(N2CCCCC2)CCN(Cc2ccc(Br)cc2)CC1,-22.6
17,CCCc1cc2c(=O)c(-c3ccc4c(c3)OCCO4)c(C)oc2cc1OS(C)(=O)=O,-1.66
18,COc1ccc(NC(=O)CN(C)CC(=O)NCc2ccc(C)cc2)cc1,2.26
19,Cc1ccc(C(=O)NC(=S)Nc2ccccc2C)cc1,-2.95
20,COc1ccccc1-c1nnc(NC(=O)Cc2ccccc2)o1,17
21,CCOC(=O)c1ccc(NC(=S)NCc2cccnc2)cc1,18.7
22,O=C(CSc1nnc(-c2cccc(F)c2)o1)N1CCCC1,8.74
23,Cc1ccc(C(=O)N/N=C/c2ccc(N3CCOCC3)cc2)c(C)c1,19.4

row,Compound,"hERG current change (%, negative = inhibition) at 1uM [%]"
1,COC(=O)c1ccc(OCC2NCCc3cc(OC)c(OC)cc32)cc1 (stereo not drawn),0.932
2,COc1nc(OC/C(N)=N/O)nc(N2CCOCC2)n1,-9.18
3,Cc1cc(Oc2ccccc2)nc(SCC(=O)Nc2ccccc2)n1,15.9
4,CN(c1ccccc1)S(=O)(=O)c1cccc(NC(=O)CSc2ncc(C(F)(F)F)cc2Cl)c1,9.03
5,COC(=O)CNC(=O)Cc1c(F)cccc1Cl,9.57
6,COc1ccc(N(CC(=O)N2CCN(c3ccc(Cl)cc3)CC2)S(=O)(=O)c2c(C)n[nH]c2C)cc1,7.13
7,Cn1c(=O)c(C(=O)CSc2nncs2)c(N)n(Cc2ccccc2)c1=O,22.2
8,NC(=O)CCC(NC(=O)c1ccc(Cl)cc1)C(=O)O (stereo not drawn),14.2
9,CCN1CCN(C(=O)C2CCN(S(=O)(=O)c3ccc(SC)cc3)CC2)CC1,9.37
10,COc1cccc(C(C#N)N2N=C(C)CC2(C)C)c1O (stereo not drawn),13.5
11,CCOC(=O)CSc1nc2ccccc2c(=O)n1Cc1ccco1,0.785
12,CN1CCN(c2ncnc3c2cnn3-c2ccc(Cl)cc2)CC1,14.8
13,O=C(Cc1ccccc1F)Nc1nc(-c2ccc(F)c(F)c2)cs1,6.68
14,O=C(Nc1nc2ccccc2n1Cc1ccccc1)c1ccco1,12.6
15,COc1ccc(-c2cc(C#N)nc(NN)n2)cc1,12.2
16,CCC1CCC(C(=O)NC(C(=O)NCCc2ccc(S(N)(=O)=O)cc2)C(C)C)CC1 (stereo not drawn),15.1
17,Cc1ccc(N(C(=O)CCC(=O)Nc2ccccn2)C(C(=O)NC(C)C)c2ccc(F)cc2)cc1 (stereo not drawn),17.1
18,COc1ccc(C(=O)NCC(C)C)c(OC)c1,7.16
19,COc1ccc2c(c1)CCN=C2Cc1ccc(OC)c(OC)c1.Cl,5.9
20,CCCCc1nc(SCC(=O)Nc2cccc(Cl)c2)n[nH]1,10.9
21,CCOC(=O)CCCOC(=O)c1ccc(S(=O)(=O)N(C)C)cc1,6.39
22,CC(=O)Nc1nc(-c2ccc3ccccc3c2)cs1,9.4
23,CNc1c(NS(=O)(=O)c2ccc(OC)c(Cl)c2)c(=O)oc2ccccc12,10.5

row,Compound,"hERG current change (%, negative = inhibition) at 1uM [%]"
1,O=C(OCC(CO)OC(CO)n1ccc(=O)[nH]c1=O)c1ccccc1 (stereo not drawn),9.5
2,O=C(CN1CCN(c2ncc(C(F)(F)F)cc2Cl)CC1)Nc1ccc2c(c1)OCO2,1.03
3,COc1ccc(CNC(=O)CSc2nc3nc(C)cc(C)n3n2)cc1,7.4
4,O=c1[nH]c2ccccc2c2ccccc12,15.2
5,Cc1ccc(NC(=O)COn2nnc3ccc(S(=O)(=O)N(C)C)cc32)cc1F,11.4
6,Cc1ccc(NC(=O)CCC(=O)NNC(=O)Cc2ccccc2)cc1C,5.79
7,CC(C)CC(OC(=O)c1nsc(Cl)c1Cl)C(=O)NC1CCCC1 (stereo not drawn),13.9
8,Cc1ccccc1-n1nnnc1SCC(=O)c1c(N)n(C)c(=O)n(C)c1=O,10.2
9,COc1cc(/C=N\NC(=O)Cn2nnc3ccccc32)cc(OC)c1OC,-3.76
10,Cc1nnc2c3ccccc3c(Cl)nn12,7.77
11,Cc1ccc(C)c(S(=O)(=O)Nc2ccccc2C(=O)Nc2ccccc2N2CCOCC2)c1,9
12,CC(=O)N1CCN(C(=O)c2cc(-c3ccc(Cl)s3)nc3ccccc23)CC1,-7.89
13,COc1ccccc1CNC(=O)c1ccc(CS(=O)(=O)c2ccccc2C)o1,-4.08
14,COc1cccc(Cn2cnc3c(NS(=O)(=O)c4cc(Cl)ccc4Cl)c(C)c(C)cc32)c1,6.11
15,CSCCC(NC(=O)c1ccco1)C(=O)OCC(=O)N1c2ccccc2NC(=O)C1(C)C (stereo not drawn),5.85
16,CCCCNc1ncnc2sc3c(c12)CCN(CCC)C3,-80.9
17,CCc1ccc(N(C2C=CS(=O)(=O)C2)S(=O)(=O)c2ccccc2)cc1 (stereo not drawn),10.1
18,CCN(CC(=O)NCC1CCCO1)S(=O)(=O)c1ccc2ccccc2c1 (stereo not drawn),15.4
19,COc1ccc(CNC(=O)CNS(=O)(=O)c2cccs2)cc1,11.4
20,CCOC(=O)C1(c2ccccc2)CCN(CCC(=O)Nc2ccc(F)cc2)CC1,3.03
21,Cc1cccc(NC(=O)c2cccc(C(=O)Nc3cccc(C)c3)c2)c1,14.1
